Numbering of substitutions follows the chain as printed. In names and notes the source's numbering stands. These are yes or no findings as the source states them, for the method shown. In cells and extracts the contact can be indirect. Some entries that bind do so weakly or less than the wild type. Tags and fused reporters may be left off the sequences shown.

The chains behind the UniProt entries cited, without tags or fusion partners. Residues count along the entry.
UniProt P46109, residues 14-102: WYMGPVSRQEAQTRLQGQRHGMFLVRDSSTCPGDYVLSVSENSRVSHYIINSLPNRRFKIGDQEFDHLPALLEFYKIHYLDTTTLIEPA

Among the data in paper PMC6029619 are binding values, retold here.

The chains are these.
B1: DCBLD2-Y1F (Tyr750Phe) (receptor, UniProt Q96PD2 67-775)
chain: QQGDGCGHTVLGPESGTLTSINYPQTYPNSTVCEWEIRVKMGERVRIKFGDFDIEDSDSCHFNYLRIYNGIGVSRTEIGKYCGLGLQMNHSIESKGNEITLLFMSGIHVSGRGFLASYSVIDKQDLITCLDTASNFLEPEFSKYCPAGCLLPFAEISGTIPHGYRDSSPLCMAGVHAGVVSNTLGGQISVVISKGIPYYESSLANNVTSVVGHLSTSLFTFKTSGCYGTLGMESGVIADPQITASSVLEWTDHTGQENSWKPKKARLKKPGPPWAAFATDEYQWLQIDLNKEKKITGIITTGSTMVEHNYYVSAYRILYSDDGQKWTVYREPGVEQDKIFQGNKDYHQDVRNNFLPPIIARFIRVNPTQWQQKIAMKMELLGCQFIPKGRPPKLTQPPPPRNSNDLKNTTAPPKIAKGRAPKFTQPLQPRSSNEFPAQTEQTTASPDIRNTTVTPNVTKDVALAAVLVPVLVMVLTTLILILVCAWHWRNRKKKTEGTYDLPYWDRAGWWKGMKQFLPAKAVDHEETPVRYSSSEVNHLSPREVTTVLQADSAEYAQPLVGGIVGTLHQRSTFKPEEGKEAGYADLDPYNSPGQEVYHAYAEPLPITGPEYATPIIMDMSGHPTTSVGQPSTSTFKATGNQPPPLVGTYNTLLSRTDSCSSAQAQYDTPKAGKPGLPAPDELVFQVPQSTQEVSGAGRDGECDVFKEIL
B2: DCBLD2-Y7F (Tyr750Phe, Tyr732Phe, Tyr677Phe, Tyr666Phe, Tyr655Phe, Tyr621Phe, Tyr565Phe) (receptor, UniProt Q96PD2 67-775)
chain: B1 chain with Y499F, Y555F, Y589F, Y600F, Y611F, Y666F
B3: DCBLD2-Y3F (Tyr750Phe, Tyr732Phe, Tyr565Phe) (receptor, UniProt Q96PD2 67-775)
chain: B1 chain with Y499F, Y666F
B4: human DCBLD1 WT, C-terminal Myc and Flag tags (receptor, UniProt Q8N8Z6 35-715)
chain: EELGDGCGHLVTYQDSGTMTSKNYPGTYPNHTVCEKTITVPKGKRLILRLGDLDIESQTCASDYLLFTSSSDQYGPYCGSMTVPKELLLNTSEVTVRFESGSHISGRGFLLTYASSDHPDLITCLERASHYLKTEYSKFCPAGCRDVAGDISGNMVDGYRDTSLLCKAAIHAGIIADELGGQISVLQRKGISRYEGILANGVLSRDGSLSDKRFLFTSNGCSRSLSFEPDGQIRASSSWQSVNESGDQVHWSPGQARLQDQGPSWASGDSSNNHKPREWLEIDLGEKKKITGIRTTGSTQSNFNFYVKSFVMNFKNNNSKWKTYKGIVNNEEKVFQGNSNFRDPVQNNFIPPIVARYVRVVPQTWHQRIALKVELIGCQITQGNDSLVWRKTSQSTSVSTKKEDETITRPIPSEETSTGINITTVAIPLVLLVVLVFAGMGIFAAFRKKKKKGSPYGSAEAQKTDCWKQIKYPFARHQSAEFTISYDNEKEMTQKLDLITSDMADYQQPLMIGTGTVTRKGSTFRPMDTDAEEAGVSTDAGGHYDCPQRAGRHEYALPLAPPEPEYATPIVERHVLRAHTFSAQSGYRVPGPQPGHKHSLSSGGFSPVAGVGAQDGDYQRPHSAQPADRGYDRPKAVSALATESGHPDSQKPPTHPGTSDSYSAPRDCLTPLNQTAMTALL
B5: DCBLD1-Y8F (human DCBLD1 with all intracellular YxxP motifs mutated to FxxP) (receptor, UniProt Q8N8Z6 35-715)
chain: B4 chain with Y506F, Y544F, Y555F, Y566F, Y587F, Y618F, Y631F, Y662F

The target of this experiment is GST-CRKL-SH2 (fusion of glutathione S-transferase with the CRKL-SH2 domain) (UniProt P46109). The experiment can be described thus: pull-down; GST-CRKL-SH2 on glutathione beads rocked with HEK 293 cell lysates (BCLB) at 4 °C, washed three times with BCLB, blot with anti-Flag or anti-Myc; cells untreated, stimulated with 8.8 mM H2O2, co-expressing Fyn and/or c-Abl, or treated with Src-1 or STI571 alone before H2O2; only the target purified.
B1: the binding entry was “binds”.
To B2 belongs “no binding”.
With B3 the entry was “binds”; with B4, “binds”; with B5, “no binding”.
